The text below walks through data of PubChem BioAssay AID488969 (Vanderbilt High Throughput Screening Facility, 2010).

Over roughly 110,000 compounds, “z-score” has its median near -0.1; the highest 2% begin near 2. This is one part of the list. Active and inactive are the calls of the source.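 The calls were made as follows: active = z-score in the third read window above 3 or below -3; inactive = the rest.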

This assay concerns the target Metabotropic glutamate receptor 8 (Rattus norvegicus) (UniProt P70579). In words: rat mGluR8 modulators via GIRK flux, primary screen, cell-based, thallium flux, HTS (AID 488969). The following applies: HEK293 rat mGluR8, GIRK (G protein-gated inwardly rectifying potassium channel) thallium flux, FluoZin2; at 10 µM; stronger effect = higher value; submaximal glutamate (EC20) added with thallium.
Chain of UniProt P70579 (P70579 whole entry, looked up): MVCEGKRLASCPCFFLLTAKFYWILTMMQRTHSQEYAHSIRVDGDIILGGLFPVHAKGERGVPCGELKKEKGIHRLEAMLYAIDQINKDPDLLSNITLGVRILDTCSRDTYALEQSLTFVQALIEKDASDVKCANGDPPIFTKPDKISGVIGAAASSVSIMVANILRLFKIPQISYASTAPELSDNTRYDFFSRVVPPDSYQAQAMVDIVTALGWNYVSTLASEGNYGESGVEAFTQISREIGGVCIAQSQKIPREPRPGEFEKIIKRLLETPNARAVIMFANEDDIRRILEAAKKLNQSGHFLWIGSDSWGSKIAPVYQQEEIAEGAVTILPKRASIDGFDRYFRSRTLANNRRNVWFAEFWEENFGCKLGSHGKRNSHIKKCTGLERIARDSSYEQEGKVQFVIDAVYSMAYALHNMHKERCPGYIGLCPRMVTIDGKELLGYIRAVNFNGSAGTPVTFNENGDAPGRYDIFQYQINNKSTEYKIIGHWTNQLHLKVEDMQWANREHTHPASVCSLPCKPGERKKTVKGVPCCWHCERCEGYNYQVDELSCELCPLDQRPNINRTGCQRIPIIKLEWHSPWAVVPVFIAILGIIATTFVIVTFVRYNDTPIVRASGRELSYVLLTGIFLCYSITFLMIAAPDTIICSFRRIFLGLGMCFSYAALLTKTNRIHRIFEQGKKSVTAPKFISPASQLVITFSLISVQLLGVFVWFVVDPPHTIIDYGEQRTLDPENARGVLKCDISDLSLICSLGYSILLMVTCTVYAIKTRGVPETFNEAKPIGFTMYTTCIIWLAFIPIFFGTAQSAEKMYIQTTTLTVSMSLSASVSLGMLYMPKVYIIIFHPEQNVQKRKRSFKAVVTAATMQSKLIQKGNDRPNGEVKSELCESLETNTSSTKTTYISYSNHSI
The compound `COc1cc2c(cc1OC)C(C1C(=O)CC(C)(C)CC1=O)N(C(=O)CCl)CC2` (stereo unspecified) had a z-score of -0.0957. Then `O=C(CCN1CCOCC1)Nc1ccc2c(c1)CCC2`, with -0.0691.

With `Nc1cc2c(cc1C(=O)c1ccc(Cl)cc1)OCCO2`, the z-score is -0.542. On to `CCC(C)[C@H](NC(=O)N1CCN(c2cccc(C(F)(F)F)c2)CC1)C(=O)OC` (stereo partly specified), for which the z-score was -0.093.

In turn, `Cc1ccc(N2C(=O)C(CN(C)C)C2c2ccccc2)cc1` (stereo unspecified) came in with a z-score of -0.0908. Then `N#CCC(=N)N1CCN(c2ccccc2)CC1`, with 0.0541. For the compound `COc1ccc(CCn2c(NCc3ccco3)nc3c2c(=O)[nH]c(=O)n3C)cc1`, the z-score was found to be 0.0433. Then `COc1ccc(C(=O)N2CCN(C3CCC(c4ccccc4)CC3)CC2)cc1OC` (stereo unspecified), with -1.61; and `N=C1C(c2nc3ccccc3c(=O)[nH]2)=C(O)CN1CCO`, with -0.0279. As for `COc1ccc(NC(=O)NC23CC4(C)CC(C)(CC(C)(C4)C2)C3)cc1`, the z-score was 0.156. As for `NNc1nc2ccc(F)cc2s1`, the z-score is -0.467. Then `C[N+](C)(C)CCCCCC(=O)/C=N/O`, with 1; and `CSc1ccc(/C=N/NC(=O)CN2CCN(Cc3ccccc3)CC2)cc1`, with -0.0744. Then `COc1ccc(Cl)cc1Nc1nc(N)nc(C(F)(F)F)n1`, with 0.302; and `Cc1cc2ccccc2n1CCNC(=O)Cc1ccccc1`, with -0.443; and `CCOC(=O)c1c(-c2ccc(C)o2)csc1NC(=O)CN(C)CC(=O)Nc1ccc(C)cc1`, with -0.104.

As to `COC(=O)C1CC(=O)N(CCc2c[nH]c3ccccc23)C1` (stereo unspecified), the z-score came out at 0.0229. In turn, `O=C(Nc1nnc(-c2ccccc2SCc2ccccc2F)s1)Nc1ccccc1F` had a z-score of -0.0793. Consider `COC(=O)c1sc2ccccc2c1-n1cccc1C(=O)C(=O)Nc1ccc(Cl)cc1`, for which the z-score is -0.228. As to `CCOc1c(Cl)cc(C2NC(=O)NC(C)=C2C(=O)NCc2ccccc2)cc1OC` (stereo unspecified), the z-score worked out at 0.0963. Compound `COc1ccccc1NC(NC(=O)c1ccccn1)C(Cl)(Cl)Cl` (stereo unspecified) had a z-score of 0.00494. Then `CCOC(=O)N1CCN(C(=O)c2ccc3c(=O)n(-c4ccc(OC)cc4)c(=S)[nH]c3c2)CC1`, with -0.582; and `CC(OC(=O)c1cccc(S(=O)(=O)Nc2cccc(C(F)(F)F)c2)c1)C(=O)Nc1ccc2c(c1)OCCO2` (stereo unspecified), with 1.12; and `CCc1nnc(NC(=O)C2CCCN2S(=O)(=O)c2ccc(C)cc2)s1` (stereo unspecified), with 0.535. Then `CCCC(=O)NC(C)c1nc2ccccc2n1CC` (stereo unspecified), with -0.68; and `CC(=O)C1=C(C)NC(SCC(N)=O)=C(C#N)C1c1sccc1C` (stereo unspecified), with -1.12; and `CCOC(=O)c1[nH]c(C)c(C(=O)Nc2cccc(Cl)c2C)c1C`, with -0.362. `O=C(CCc1nc2ccccc2c(=O)[nH]1)Nc1ccc(F)cc1`: the z-score was found to be 0.0151. Then `CSc1ccccc1NC(=O)c1ccc(Br)o1`, with -0.471; and `Cc1onc(-c2ccccc2)c1-c1n[nH]c(=S)n1-c1ccccc1Cl`, with -0.134. `CC(C)CNC(=O)c1c(N)n(/N=C/c2ccccn2)c2nc3ccccc3nc12` came in with a z-score of 0.175. The compound `CC(=O)Nc1ccc(OCC(O)CN2CCN(c3cc(Cl)ccc3C)CC2)cc1` (stereo unspecified) had a z-score of 0.103. Then `Cc1oc2cc(O)ccc2c(=O)c1N1C(=O)c2ccccc2C1=O`, with 0.266; and `COc1ccc(CCNC(=O)c2cc(-c3ccc(C)c(C)c3O)n[nH]2)cc1OC`, with -0.207. Regarding `CCCNCCC(c1ccco1)c1ccccc1OC` (stereo unspecified), the z-score was -0.299.

`CC(Sc1nc2cc(Cl)ccc2s1)C(=O)Nc1ccc2c(c1)OCO2` (stereo unspecified) gave a z-score of -0.296. Then `COc1ccc(-c2noc(COc3ccc(C)c(C)c3)n2)cc1OC`, with 0.212; and `Cc1cc(C)n(-c2nc3ccccc3c(=O)n2OCC(=O)Nc2c(C)cccc2C)n1`, with -0.202. Then `Cc1cc(C)cc(OC(=O)CCN2C(=O)c3ccccc3C2=O)c1`, with 0.513. On to `Cc1nn(Cc2ccc(Cl)cc2)c(C)c1NC(=O)C1CC=CCC1C(=O)O` (stereo unspecified), for which the z-score is -0.0201. In the case of `O=C(NCc1cn(-c2ccccc2)nc1-c1ccccc1)c1cccc([N+](=O)[O-])c1`, the z-score was -0.314. Compound `COc1cc(NC(=O)C2CCC(CNc3c(N4CCC(C)CC4)c(=O)c3=O)CC2)cc(OC)c1` (stereo unspecified) came in with a z-score of -2.37.

For `CC1CCN(Cc2csc(N)n2)CC1`, the z-score is -0.00755. Compound `Cc1c(N=C2NC(=O)C(CC(=O)Nc3ccccc3)S2)c(=O)n(-c2ccccc2)n1C` (stereo unspecified) came in with a z-score of 1.14. In turn, `O=C(C(NS(=O)(=O)c1cccc2nsnc12)c1ccccc1)N1CCN(c2ccccc2)CC1` (stereo unspecified) gave a z-score of 0.466. Compound `CN(C)c1cccc(C(=O)Nc2ccc(N3CCOCC3)cc2)c1` showed a z-score of -0.0628. Then `CC(C)(C)OC(=O)N1CCC(c2cc(=O)n3[nH]c(-c4ccc(Cl)cc4)cc3n2)CC1`, with -0.208. As to `Cc1ccc(NC(=O)C(=O)NCc2ccc(/C=N/NC(=O)c3c(C)nc4cc(C)ccn34)o2)cc1`, the z-score was -0.586. Then `Cc1ccc(CS(=O)(=O)CCC(=O)NCC2CCCO2)cc1` (stereo unspecified), with 0.205; and `CCOC(=O)Cn1cnc2c(nnn2-c2ccc(OC)cc2)c1=O`, with -0.0987; and `CC(C)(C)c1csc(NC(=O)c2ccc3nccnc3c2)n1`, with active: 5.29.

With `Cc1ccc(CSc2ncn(-c3ccccc3)n2)cc1`, the z-score is 0.0447. Then `Cn1nnc(NC(=O)CSc2ccc(Cl)cc2)n1`, with 0.386; and `CCOC(=O)c1nc(S(C)(=O)=O)ncc1N1CCOCC1`, with 1.31. In turn, `O=C(c1cccc(S(=O)(=O)N2CCCC2)c1)c1cccc(S(=O)(=O)N2CCCC2)c1` registered a z-score of 0.0227. For `S=C(NCc1ccccc1)NCc1ccccc1`, the z-score is 0.346. Turning to `O=C(Cc1ccc(F)cc1)N1CCN=C1SCc1ccc([N+](=O)[O-])cc1`, the z-score is -0.0378. Take `C=CCOC(=O)C1=C(C)NC(SC)=C(C#N)C1c1ccc(OCC)cc1` (stereo unspecified): the z-score is -0.421.

Take `COc1ccc(Cl)cc1S(=O)(=O)n1ccnc1C(C)C`: the z-score was -0.0773. Regarding `O=C(Oc1ccc(N(Cc2cccs2)C2=NS(=O)(=O)c3ccccc32)cc1)c1ccccc1`, the z-score is -0.255.

`CCOC(=O)N1CCN(CC(O)COCc2cc(OC)c(OC)c(OC)c2)CC1` (stereo unspecified) registered a z-score of -0.259.

Turning to `CCOC(=O)c1sc2nc(CC(=O)OC)nc(NCc3ccc(Cl)cc3)c2c1C`, the z-score was -0.0302. Then `CCCOc1ccc(NC(=O)CC2C(=O)N(CC)C(=S)N2Cc2cccs2)cc1` (stereo unspecified), with -0.227; and `O=C(Nc1cccnc1)C1CCN(S(=O)(=O)c2cccc3nonc23)CC1`, with -0.148; and `N#CC(=C1CCCC1)c1nc(-c2cc3ccccc3oc2=O)cs1`, with -0.96.

On to `CCc1ccccc1NC(=O)C(C#N)Cc1cccnc1` (stereo unspecified), for which the z-score came out at 0.345.

`Clc1ccc(CN=C2Nc3ccccc3CS2)cc1` yielded a z-score of -0.0923. Then `Cc1ccc(N2CC(C(=O)Nc3cccnc3)CC2=O)cc1` (stereo unspecified), with -0.238; and `CC(C)CC(=O)Nc1ccc(OCC(=O)O)cc1`, with -0.149; and `Cn1c(CCN2CCN(c3ccccc3)CC2)nc2cc(NC(=O)c3ccco3)ccc21`, with -0.501.

`O=C(CN1CCc2ccccc21)NC(=O)NCc1ccco1` gave a z-score of 0.562. `O=[N+]([O-])c1c(NCCCO)cc(Sc2ccc(Cl)cc2)c2nonc12` came in with a z-score of -0.105.

Consider `CC(=O)N1c2ccccc2NC(=O)C1(C)C`, for which the z-score was -0.113. As for `Oc1sc(C=Nc2ccc(F)cc2)c2ccccc12`, the z-score was 0.0762. Consider `Cc1cc(C)n(-c2ccc(C(=O)Nc3ccccc3N3CCOCC3)cc2)n1`, for which the z-score was determined as 0.328. On to `CC(C)C(=O)Nc1ccc(C(=O)NNC(=O)c2ccco2)cc1`, for which the z-score is 0.22. In the case of `COc1cc(S(=O)(=O)Nc2ccccc2)ccc1NC=O`, the z-score was -0.154. `O=C(Nc1nnc(CCN2CCCCC2)s1)C1CCCCC1` returned a z-score of 0.738. Then `COc1cc2nc(=S)n3[nH]c(COc4ccccc4C)nc3c2cc1OC`, with -0.498; and `Cc1ccccc1-n1c(-c2csc3ccccc23)n[nH]c1=S`, with 0.627; and `Nc1nnc(SCc2ccccc2Cl)s1`, with -0.1. In the case of `CC(=O)Nc1ccc(C(=O)N/N=C(\C)CC(=O)Nc2ccc(OCc3ccccc3)cc2)cc1`, the z-score was -0.00625. Then `CCC(C)[C@@H](C(=O)Nc1ccc2c(c1)OCO2)N1Cc2ccccc2C1=O` (stereo partly specified), with -0.331; and `CCOc1ccc(-c2nnc(SCC(=O)N3CCOCC3)o2)cc1`, with -0.569. Then `COC(=O)[C@H](Cc1ccccc1)NC(=O)N1CCC(C)CC1`, with -0.214; and `Cn1ccnc1SCc1cn2cc(Br)ccc2n1`, with -0.0673. Then `O=c1cc2c(n[nH]1)CCCC2`, with 1.72; and `CCOc1cc(C(c2c(C)[nH][nH]c2=O)c2c(C)[nH][nH]c2=O)ccc1OS(=O)(=O)c1ccccc1`, with -0.256; and `COc1ccc(N2CCN(c3ncnc4c3nnn4Cc3ccccc3Cl)CC2)cc1`, with 0.0466. As to `C=CCOc1c(CNc2nccs2)cccc1OCC`, the z-score was -0.513. Then `CC[n+]1c(P(=O)([O-])c2ccccc2)[nH]c2ccccc21`, with 0.0907. For the compound `CCC(=O)N1CCN(c2ccc(NC(=O)COc3ccccc3Cl)cc2)CC1`, the z-score is -0.324.

Regarding `COc1cccc(C2=NO[C@@H]3C(=O)N(Cc4ccccc4)C(=O)[C@H]23)c1OC`, the z-score is -0.345. Then `Cc1cc(-n2c(C)cc(C(=O)CSc3nnnn3-c3ccc(Cl)cc3)c2C)no1`, with -0.366; and `CCOc1ccc(N2CC(=O)Nc3ccccc3NCC2=O)cc1`, with 1.28; and `COn1c(SC(C)C)nc2ccccc2c1=O`, with -0.948. `O=C1C=C(NNC(=O)c2ccccc2Br)CCC1` returned a z-score of -0.139. Then `C=CCOC(=O)/C(=C\c1ccc(OC)cc1)NC(=O)c1ccco1`, with 0.305.

The compound `Cc1nn(CC(O)CN2c3ccccc3Sc3ccccc32)c(C)c1Br` (stereo unspecified) yielded a z-score of -0.414. Then `O=C(Nc1ccccc1)c1cccc(S(=O)(=O)NCc2ccco2)c1`, with 0.186.

As for `O=C(CN(Cc1ccco1)C(=O)c1cccc(Cl)c1)Nc1c(Cl)cc(Cl)cc1Cl`, the z-score was -0.377. Then `O=C(Cc1cccs1)N(c1ccc(F)cc1)C1(C(=O)NC2CCCCC2)CCCC1`, with -0.0595; and `COc1ccc(/C(N)=N/OC(=O)Cc2cccs2)cc1OC`, with -0.267; and `COc1ccc(S(=O)(=O)N2CCN(S(=O)(=O)c3ccc4c(c3)OCCO4)CC2)cc1C`, with 0.899. Consider `CCN1CCN(CC(O)COC(C)C)CC1` (stereo unspecified), for which the z-score is -0.109.

`O=C(c1cccc(N2C(=O)C3CC=CCC3C2=O)c1)N1CCN(c2ccccc2)CC1` (stereo unspecified) registered a z-score of -0.0909. Then `CCC(=O)Nc1ccc(C(=O)CSc2nnc(CNc3ccc(Cl)cc3)o2)cc1OC`, with -0.38; and `CC(C(=O)Nc1cccc(Br)c1)c1ccc([N+](=O)[O-])cc1` (stereo unspecified), with -0.268. Then `Cc1ccc(NC(=O)N2CCCC2C(=O)Nc2ccc(-n3cnnn3)c(C)c2)cc1` (stereo unspecified), with -0.415. For `CCOC(=O)C(=O)NNc1ccccc1C`, the z-score stood at 0.0736.

Take `CC(=O)Nc1ccc2c(c1)c1ccccc1n2C(C)=O`: the z-score is -0.0481.
